Results from the supplement of paper PMC4604168 (melanoma cell lines).
The other results are listed elsewhere or left out. Most values come without repeats; read them as rough.

Key:
Test in all cases: cell count relative to DMSO control; melanoma cells; higher = more viable cells
Conditions in all cases: library dose: standard library concentration; 72 h
[1] = system: G361
[2] = system: IPC-298
[3] = system: IST-MEL1
[4] = system: LB2518-MEL
[5] = system: LOXIMVI
[6] = system: MEL-HO
[7] = system: MZ2-MEL
[8] = system: MeWo
[9] = system: RPMI7951
[10] = system: RVH-421
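Also: cells treated in 1,536-well plates, then fixed and DAPI-stained, with nuclei counted from automated high-throughput microscope images.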

SMILES | cell count [1] | cell count [2] | cell count [3] | cell count [4] | cell count [5] | cell count [6] | cell count [7] | cell count [8] | cell count [9] | cell count [10]
COc1ccc(C2=N[C@@H](c3ccc(Cl)cc3)[C@@H](c3ccc(Cl)cc3)N2C(=O)N2CCNC(=O)C2)c(OC(C)C)c1 [Nutlin-3] + CC(=O)O[C@@]12CO[C@@H]1C[C@H](O)[C@@]1(C)C(=O)[C@H](O)C3=C(C)[C@@H](OC(=O)[C@H](O)[C@@H](NC(=O)OC(C)(C)C)c4ccccc4)C[C@@](O)([C@@H](OC(=O)c4ccccc4)[C@H]21)C3(C)C [Docetaxel] (first compound 0.5 µM, partner dose 0.0005 µM) | 16.1% | 39.8% | 37.9% | 44.1% | 48.4% | 42.4% | 39.6% | 29.4% | 29% | 49.3%
CC(C)C[C@H](NC(=O)[C@H](Cc1ccccc1)NC(=O)c1cnccn1)B(O)O [Bortezomib] + C[C@@H](Oc1cc(-c2cnn(C3CCNCC3)c2)cnc1N)c1c(Cl)ccc(F)c1Cl [Crizotinib] (first compound 0.005 µM, partner dose 1 µM) | 1.13% | 21.6% | 15% | 4.12% | 20.9% | 29.6% | 7.83% | 12.8% | 3.69% | 80.9%
Cc1cc(Nc2cc(N3CCN(C)CC3)nc(/C=C/c3ccccc3)n2)n[nH]1 + O=C(O)c1ccc(-c2c[nH]c3ncc(-c4ccccc4)cc23)cc1C1CCCC1 [GSK650394] (first compound 0.2 µM, partner dose 0.8 µM) | 64.8% | 92.9% | 70.2% | 77.8% | 99.2% | 71.7% | 93.4% | 69.6% | 66.7% | 89.3%
COc1ccc(C2=N[C@@H](c3ccc(Cl)cc3)[C@@H](c3ccc(Cl)cc3)N2C(=O)N2CCNC(=O)C2)c(OC(C)C)c1 [Nutlin-3] + COC(=O)c1sccc1S(=O)(=O)Nc1ccc(Nc2ccccc2)cc1OC [GSK0660] (first compound 0.5 µM, partner dose 5 µM) | 72.7% | 94% | 104% | 81.9% | 74.6% | 99.1% | 88.7% | 90.7% | 86.2% | 50.3%
Cc1cc(Nc2cc(N3CCN(C)CC3)nc(/C=C/c3ccccc3)n2)n[nH]1 + Cn1nnc2c(C(N)=O)ncn2c1=O [temozolomide] (first compound 0.2 µM, partner dose 10 µM) | 89.9% | 79.2% | 96.7% | 91% | 67.7% | 85% | 90.3% | 82.6% | 99.6% | 77.9%
COc1ccc(C2=N[C@@H](c3ccc(Cl)cc3)[C@@H](c3ccc(Cl)cc3)N2C(=O)N2CCNC(=O)C2)c(OC(C)C)c1 [Nutlin-3] + Clc1ccc(Nc2nnc(Cc3ccncc3)c3ccccc23)cc1 [vatalanib] (first compound 0.5 µM, partner dose 10 µM) | 52.8% | 67.5% | 77.2% | 56.3% | 36.9% | 55.4% | 66.8% | 68.9% | 71.8% | 48.3%
Cc1cn(-c2cc(NC(=O)c3ccc(C)c(Nc4nccc(-c5cccnc5)n4)c3)cc(C(F)(F)F)c2)cn1 [nilotinib] + Oc1cc(-c2nc(-c3ccccc3)[nH]c2-c2ccncc2)ccc1Cl [L779450] (first compound 1 µM, partner dose 1 µM) | 58.5% | 88.8% | 87.7% | 88.9% | 147% | 86.8% | 114% | 83.4% | 72.8% | 65%
Cn1c(=O)n(-c2ccc(C(C)(C)C#N)cc2)c2c3cc(-c4cnc5ccccc5c4)ccc3ncc21 + C[C@@H]1CCN(C(=O)CC#N)C[C@@H]1N(C)c1ncnc2[nH]ccc12 [CP690550] (first compound 0.02 µM, partner dose 5 µM) | 77.2% | 93.2% | 98.8% | 109% | 79.6% | 71.8% | 120% | 69% | 99% | 125%
COc1ccc(C2=N[C@@H](c3ccc(Cl)cc3)[C@@H](c3ccc(Cl)cc3)N2C(=O)N2CCNC(=O)C2)c(OC(C)C)c1 [Nutlin-3] + CN(NC(=O)CC(=O)NN(C)C(=S)c1ccccc1)C(=S)c1ccccc1 [STA4783] (first compound 0.5 µM, partner dose 0.03 µM) | 32.5% | 65.6% | 33.4% | 16.3% | 45.6% | 80.2% | 96.9% | 24.5% | 63.5% | 49.3%
Cc1cn(-c2cc(NC(=O)c3ccc(C)c(Nc4nccc(-c5cccnc5)n4)c3)cc(C(F)(F)F)c2)cn1 [nilotinib] + Cn1nnc2c(C(N)=O)ncn2c1=O [temozolomide] (first compound 1 µM, partner dose 10 µM) | 7.9% | 96.5% | 81.3% | 70.9% | 97.8% | 92% | 91% | 98.4% | 75.4% | 86.6%
CC(C)C[C@H](NC(=O)[C@H](Cc1ccccc1)NC(=O)c1cnccn1)B(O)O [Bortezomib] + C=CCn1c(=O)c2cnc(Nc3ccc(N4CCN(C)CC4)cc3)nc2n1-c1cccc(C(C)(C)O)n1 [MK1775] (first compound 0.005 µM, partner dose 0.1 µM) | 1.86% | 21.7% | 7.43% | 5.62% | 16.2% | 30.2% | 8.44% | 13.7% | 9.28% | 5.18%
COc1ccc(C2=N[C@@H](c3ccc(Cl)cc3)[C@@H](c3ccc(Cl)cc3)N2C(=O)N2CCNC(=O)C2)c(OC(C)C)c1 [Nutlin-3] + Cn1cncc1[C@@](N)(c1ccc(Cl)cc1)c1ccc2c(c1)c(-c1cccc(Cl)c1)cc(=O)n2C [tipifarnib] (first compound 0.5 µM, partner dose 0.05 µM) | 63.7% | 90.1% | 85.7% | 51.3% | 57.9% | 98.9% | 99.4% | 91.3% | 65.2% | 59.7%
CC(C)C[C@H](NC(=O)[C@H](Cc1ccccc1)NC(=O)c1cnccn1)B(O)O [Bortezomib] + CC(C)CCN1c2nc(Nc3cc(F)c(O)c(F)c3)ncc2N(C)C(=O)C1C [BID1870] (first compound 0.005 µM, partner dose 1 µM) | 1.07% | 17.6% | 11.3% | 6.92% | 23.8% | 29% | 7.05% | 10.9% | 6.86% | 5.24%
Cc1cn(-c2cc(NC(=O)c3ccc(C)c(Nc4nccc(-c5cccnc5)n4)c3)cc(C(F)(F)F)c2)cn1 [nilotinib] + Cn1cc(/C=C2\C(=O)Nc3cccnc32)c2ccccc21 [GW441756] (first compound 1 µM, partner dose 2 µM) | 71.6% | 93% | 102% | 74.7% | 100% | 94.6% | 83.3% | 101% | 94.1% | 88.3%
CC(C)C[C@H](NC(=O)[C@H](Cc1ccccc1)NC(=O)c1cnccn1)B(O)O [Bortezomib] + O=C(CCCCCCC(=O)Nc1ccccc1)NO [vorinostat] (first compound 0.005 µM, partner dose 0.4 µM) | 0.945% | 12.5% | 5.98% | 2.53% | 6.61% | 24.6% | 7.76% | 12.8% | 2.9% | 0.882%
Cc1cc(Nc2cc(N3CCN(C)CC3)nc(/C=C/c3ccccc3)n2)n[nH]1 + Nc1ncn([C@H]2C[C@H](O)[C@@H](CO)O2)c(=O)n1 [decitabine] (first compound 0.2 µM, partner dose 0.5 µM) | 67.4% | 56.7% | 75.7% | 77% | 79.5% | 70.4% | 67.7% | 60.1% | 80.4% | 69.8%
Cc1cn(-c2cc(NC(=O)c3ccc(C)c(Nc4nccc(-c5cccnc5)n4)c3)cc(C(F)(F)F)c2)cn1 [nilotinib] + CCN(CC)CCCCNc1ncc2cc(-c3cc(OC)cc(OC)c3)c(NC(=O)NC(C)(C)C)nc2n1 [PD173074] (first compound 1 µM, partner dose 0.5 µM) | 116% | 94.2% | 115% | 94.4% | 97.5% | 89.8% | 104% | 87.9% | 81.6% | 87.5%
Cc1cc(Nc2cc(N3CCN(C)CC3)nc(/C=C/c3ccccc3)n2)n[nH]1 + CCCS(=O)(=O)Nc1ccc(F)c(C(=O)c2c[nH]c3ncc(Cl)cc23)c1F [PLX4720] (first compound 0.2 µM, partner dose 0.4 µM) | 69.9% | 72.8% | 91.9% | 82.3% | 107% | 83.3% | 85.3% | 90.4% | 78.7% | 63.6%
CC(C)C[C@H](NC(=O)[C@H](Cc1ccccc1)NC(=O)c1cnccn1)B(O)O [Bortezomib] + Oc1cc(-c2nc(-c3ccccc3)[nH]c2-c2ccncc2)ccc1Cl [L779450] (first compound 0.005 µM, partner dose 1 µM) | 0.633% | 21.8% | 11.3% | 8.37% | 32.2% | 38.1% | 7.26% | 7.58% | 7.23% | 9.88%
Cc1cc(Nc2cc(N3CCN(C)CC3)nc(/C=C/c3ccccc3)n2)n[nH]1 + OCCn1cc(-c2cnc3nnn(Cc4ccc5ncccc5c4)c3n2)cn1 [PF04217903] (first compound 0.2 µM, partner dose 5 µM) | 93.4% | 118% | 96.1% | 75.3% | 97.9% | 105% | 120% | 76.4% | 76.1% | 82.1%
Cc1cn(-c2cc(NC(=O)c3ccc(C)c(Nc4nccc(-c5cccnc5)n4)c3)cc(C(F)(F)F)c2)cn1 [nilotinib] + C=C(c1ccc(C(=O)O)cc1)c1cc2c(cc1C)C(C)(C)CCC2(C)C [Bexarotene] (first compound 1 µM, partner dose 10 µM) | 72.5% | 90.8% | 78.5% | 79.3% | 212% | 94% | 93.8% | 92.6% | 140% | 72%
